Results on 40 sequences are retold here after publication PMC10726135.

Some of the results follow. At the low end of the ranking the order means little. The protein was read in a cell extract, so binding may be indirect.

The target in this assay is T1, HNF4alpha8 (COS-7 nuclear extract) (UniProt P41235-5).
T1 sequence: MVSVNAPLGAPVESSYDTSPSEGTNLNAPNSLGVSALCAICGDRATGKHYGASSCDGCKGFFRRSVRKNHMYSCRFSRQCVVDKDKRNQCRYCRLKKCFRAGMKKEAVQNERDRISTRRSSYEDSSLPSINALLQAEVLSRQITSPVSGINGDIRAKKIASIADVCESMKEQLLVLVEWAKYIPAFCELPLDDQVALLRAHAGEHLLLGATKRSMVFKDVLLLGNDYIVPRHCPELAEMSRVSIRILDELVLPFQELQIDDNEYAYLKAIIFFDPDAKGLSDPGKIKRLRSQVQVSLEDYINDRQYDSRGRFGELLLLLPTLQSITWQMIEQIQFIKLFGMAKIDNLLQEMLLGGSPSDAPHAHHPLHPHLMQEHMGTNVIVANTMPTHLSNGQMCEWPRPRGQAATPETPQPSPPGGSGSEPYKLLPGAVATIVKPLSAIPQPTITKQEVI
The assay can be described thus: protein-binding microarray. Conditions: COS-7 nuclear extract on double-stranded Agilent 4x180k PBM; binding buffer, salt, pH and temperature not given; high values mean tight binding; double strand, one strand shown; sequences stand for … in …GCCTAGGGAGATTAGAGTATCGGTCGA
Turning to GTGCCTCTTTGGTGAATTTTATGTCTTCTT, the binding signal (log2 normalized intensity) is 1.36.

Consider TGTCTCTGTAAATAAATGTCATTTAAGACG, for which the binding signal (log2 normalized intensity) stood at 0.537.

Consider CTGCTGGACACCGAGGTCCTGGGGCGATGC, for which the binding signal (log2 normalized intensity) was -1.24.

For the sequence TATTGAACCACCAGATAGAGCTTTTGAGGG, the binding signal (log2 normalized intensity) is -1.28.

ACTAAGTGCTTAGTATGTGCTAGGCATTTT: the binding signal (log2 normalized intensity) was 0.0923.

Regarding TTGAGCTGCTAAACCAACACCAGCAACCGC, the binding signal (log2 normalized intensity) was -1.21.

On to CTCTGCCTCGGCCACATTCCCCGACTCCTG, for which the binding signal (log2 normalized intensity) was 1.65.

Consider ACAGATGGCCTCACTCGGTGTGAGTGGTCC, for which the binding signal (log2 normalized intensity) worked out at 0.966.

Regarding ACCAGGTAGGGCCCCCAGCCAGGCCCCAGG, the binding signal (log2 normalized intensity) amounted to 1.32.

On to CTCAAGGAATCCTCCTAAGTAGCCAAGATT, for which the binding signal (log2 normalized intensity) is -1.4.

Turning to ATGCCCAAATGAATAATCCCCTCCTGGACT, the binding signal (log2 normalized intensity) was determined as 3.33.

As for AGTTCCGAGTTCCCTCGATTATTTCAGCCA, the binding signal (log2 normalized intensity) is -1.28.

In the case of ACCTCGATCCCTGGCTAAGGTCCTGTTTGT, the binding signal (log2 normalized intensity) is 1.69.

Turning to GGATTTCTTGGCTTCTCTTGGACCTCAATG, the binding signal (log2 normalized intensity) came out at 2.36.

For the sequence GGGCCAGCTGTACAAATAAAGGATGAAGGA, the binding signal (log2 normalized intensity) is -0.943.

For the sequence AGGGTACAAATTCCAGAGAGGGGCCTCCAT, the binding signal (log2 normalized intensity) stood at 1.89.

Turning to TAGACATAGGTTATAAACTTGTTTGGGATT, the binding signal (log2 normalized intensity) was determined as 0.308.

For the sequence ACTTGTTATCACCTGCTGGAATGTTTCAAG, the binding signal (log2 normalized intensity) came out at 1.48.

For CATATTCCTTAGATAAAAAGCTTTTCTTCC, the binding signal (log2 normalized intensity) was -0.947.

On to TCTTTACACATCTGTTAGGAATGTCATGCA, for which the binding signal (log2 normalized intensity) was determined as 0.608.

In the case of GAGTTCAGTTATCATTTCTACAGGGTCAAG, the binding signal (log2 normalized intensity) is 3.09.

As for GGGGGTGGAGAAGGAAGGGGAAGATGATAG, the binding signal (log2 normalized intensity) was -1.3.

For TCCGGCCTGAGGCAGGATCAGGGCCCCTTC, the binding signal (log2 normalized intensity) is -1.22.

As to GACCTCGGCGGAGCCTCCGGCCTGAGGCAG, the binding signal (log2 normalized intensity) is -1.34.

As to AAAGAGAAAGTAAGTGCACAGCCAGAACTG, the binding signal (log2 normalized intensity) is -1.35.

As for GTCCGACTGCACACCGTCCAGAGGCTCCAA, the binding signal (log2 normalized intensity) was -1.4.

Turning to TGAAAGTCCACTTGTCTGGCCTTCCTGGCC, the binding signal (log2 normalized intensity) is 1.32.

With CCTGGGCTGTATGTTCTAACCATAGGAGGC, the binding signal (log2 normalized intensity) worked out at 0.0159.

AATGTGCCCAGATAAGAACTGCAAGGCTAG: the binding signal (log2 normalized intensity) is -1.32.

As to TCTTTCGCTGTAGAAAGTGGTTTCAAGGTG, the binding signal (log2 normalized intensity) is 1.24.

GTGCTGGGGACAAAAGCTGAGTCCCTGCTT: the binding signal (log2 normalized intensity) is -1.05.

GTTCAAACTTTATTTGATGATGAAGCAACA: the binding signal (log2 normalized intensity) amounted to 0.662.

Consider CGCCCTTGGAATATCCTGCCTAACAGGAGT, for which the binding signal (log2 normalized intensity) was -1.35.

Take TGGTTTACTTATGTCTCCAGAAACCAACCT: the binding signal (log2 normalized intensity) amounted to 0.592.

CATCAAAGCATTTGGAGATTGCCACCTTGG: the binding signal (log2 normalized intensity) was -1.23.

For the sequence TTATCTGATAAGTCCATACCTAGTCTTATC, the binding signal (log2 normalized intensity) amounted to 0.551.

As to GTTATCACAGGCTTGGAATGTTTCTGTATC, the binding signal (log2 normalized intensity) was 0.74.

Take TTGGGGTCCAAAGTCTTTGTTCCTAGCCAC: the binding signal (log2 normalized intensity) was 4.57.

For TTGTCAAAGATAGTTGTAGTTACAGCTCAT, the binding signal (log2 normalized intensity) was -0.973.

Consider GAATCTGTTCCACCTGATCAAGCAACTGGC, for which the binding signal (log2 normalized intensity) was -1.2.
